Reference: PubChem BioAssay AID1159614 (National Center for Advancing Translational Sciences (NCATS), 2016)
Hit rate of the full screen: of about 45,000 compounds, about 65 (0.1%) were called active. The call rests on the fitted dose curve; in most records, active means well fitted activation curve with a large enough effect; inconclusive means small, poorly fitted or top-dose-only effect; inactive means no such curve, though single readings can be large or run the other way. The list shows a part of the results.
Further: 0% is about no effect; nearly all actives have a fitted effect of over 65% in size.

Each compound was assayed against Galactocerebrosidase (Homo sapiens) (UniProt P54803) (assay: A Novel Cell-Based Assay to Identify Small Molecules for B -Galactocerebrosidase). Conditions: 145M-Twi-hGALC-G270D cells (Twitcher mouse brain line with human GALC G270D), HMU-beta-Gal fluorescence, 48 h; series mostly up to 57.5 µM; activation: at the top concentration.
Chain of UniProt P54803 (P54803 whole entry, looked up): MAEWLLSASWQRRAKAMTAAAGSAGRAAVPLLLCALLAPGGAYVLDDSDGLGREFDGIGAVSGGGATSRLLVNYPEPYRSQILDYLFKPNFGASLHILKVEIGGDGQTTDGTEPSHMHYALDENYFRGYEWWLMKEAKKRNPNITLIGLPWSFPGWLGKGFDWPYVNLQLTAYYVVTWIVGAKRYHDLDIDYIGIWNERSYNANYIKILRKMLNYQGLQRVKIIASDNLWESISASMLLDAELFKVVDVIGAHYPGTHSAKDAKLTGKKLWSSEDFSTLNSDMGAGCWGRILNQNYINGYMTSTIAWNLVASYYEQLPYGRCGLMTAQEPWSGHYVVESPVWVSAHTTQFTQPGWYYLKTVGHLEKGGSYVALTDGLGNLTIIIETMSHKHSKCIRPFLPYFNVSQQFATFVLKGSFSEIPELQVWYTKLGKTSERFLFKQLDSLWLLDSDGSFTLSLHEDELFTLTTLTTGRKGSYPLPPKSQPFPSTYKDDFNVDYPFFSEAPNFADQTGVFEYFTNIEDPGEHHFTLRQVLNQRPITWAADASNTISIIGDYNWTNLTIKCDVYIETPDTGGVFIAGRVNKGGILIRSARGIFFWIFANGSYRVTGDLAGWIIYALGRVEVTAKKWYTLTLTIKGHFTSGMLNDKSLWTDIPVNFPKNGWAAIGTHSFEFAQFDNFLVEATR
In short: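 Fluorescence readout: HMU-β-gal cleavage by mutant GALC (0.1 mM final, citrate/phosphate pH 5.2 with 1 mg/mL taurocholate), stopped with carbonate/bicarbonate plus Triton X-100. Cells: murine Twitcher 145M-Twi expressing human G270D GALC; qHTS for activators.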
`CCc1cccc(NC(=O)c2cc3c(=O)n(Cc4ccc(OC)cc4)ccc3nc2C)c1` was tested, and the “activation” value was inactive: -6.99%. `CCCSc1nnc2c(n1)OC(c1sccc1C)Nc1ccccc1-2` (stereo unspecified) was tested, and the “activation” value was inactive: -20.6%. For `Cc1ccc(N2C(=O)N(CC(=O)C(C)(C)C)c3ccccc3S2(=O)=O)cc1C`, the “activation” value was inactive: -0.0621%. `CCOc1ccc(-c2cc(C(=O)N3CCN(S(=O)(=O)c4cc(Cl)ccc4OC)CC3)[nH]n2)cc1` was tested, and the “activation” value was inactive: -5.56%. `CC1=C(C(=O)OCC2CCCCC2)C(c2cccc(Cl)c2Cl)CC(=O)N1` (stereo unspecified) was tested, and the “activation” value was inactive: -14%. `Cc1ccc(C2CC(=O)Nc3cc4c(cc32)OCCO4)cc1` (stereo unspecified) was tested, and the “activation” value was inactive: -5.59%. `CC(=O)N1CCCC1c1nc2ccccc2n1Cc1ccccc1` (stereo unspecified) was tested, and the “activation” value was inactive: -13%. In the case of `CCOc1ccc(C(=O)c2oc3ccccc3c2NC(=O)Cc2coc3cc(C)cc(C)c23)cc1`, the “activation” value is reported as inactive: -19.9%. In the case of `CCc1ccc(Cn2c(CNS(=O)(=O)c3ccc(F)c(Cl)c3)nc3cccnc32)cc1`, the “activation” value is reported as inactive: 8.42%. `Cc1cc2oc(C(=O)N(Cc3ccccc3F)C3CCS(=O)(=O)C3)c(C)c2cc1Cl` (stereo unspecified) was tested, and the “activation” value was inactive: -16.9%. For `CCOC(=O)c1ccc(NC(=O)c2c(N3CCCC3=O)c3cc(OC)ccc3n2C)cc1`, the “activation” value was inactive: -21.3%. `Cc1ccc(C)c(N2CCN(C(=O)Cn3ncc4ccsc4c3=O)CC2)c1` was tested, and the “activation” value was inactive: -19.6%. `Cc1c(Cl)cccc1NC(=O)CN1C(=O)COc2ccc(S(=O)(=O)N3CCOCC3)cc21` was tested, and the “activation” value was inactive: -19%. For `CCc1ccc(N2C(=O)CSC23C(=O)N(Cc2ccc(C)cc2)c2ccccc23)cc1` (stereo unspecified), the “activation” value was inactive: -42.3%. With `CCCC(CCC)C(=O)Nc1cc(-c2cn3cccnc3n2)ccc1OC` the “activation” value was inactive: -2.54%. `COc1cc(C(c2c(C)[nH][nH]c2=O)c2c(C)[nH][nH]c2=O)ccc1OC(=O)c1cccc(C)c1` was tested, and the “activation” value was inactive: -24.7%. With `O=C(c1ccc2c(c1)CCCC2)N1CCN(c2nc3c(F)cccc3s2)CC1` the “activation” value was inactive: -21.2%. `CCOC(=O)C1CCCCN1S(=O)(=O)c1csc(C(N)=O)c1` (stereo unspecified) was tested, and the “activation” value was inactive: 18.3%. With `CCn1cc(C(=O)NCc2ccccc2)c(=O)c2cc(S(=O)(=O)N3CCc4ccccc4C3)ccc21` the “activation” value was inactive: -9.17%. For `COc1ccc(Cn2cc(C(=O)c3ccc(C)cc3)c(=O)c3cc(OC)c(OC)cc32)cc1`, the “activation” value was inactive: -9.37%. In the case of `COc1ccc(S(=O)(=O)c2c(C)c(NS(=O)(=O)c3ccccc3)cc(C)c2O)cc1`, the “activation” value is reported as inactive: -19.2%. For `Cc1oc(-c2cccc(Cl)c2)nc1CN1CCC(C(=O)NCCCN2CCN(c3ccc(F)cc3)CC2)CC1`, the “activation” value was inactive: -10.8%. In the case of `O=C(CSc1nc2c(c(=O)[nH]1)CCC2)Nc1ccccc1C(F)(F)F`, the “activation” value is reported as inactive: -25.3%. `O=C(NCN1CCOCC1)c1cnccn1` was tested, and the “activation” value was inactive: -10.8%. For `Cc1ccccc1Nc1c(-c2ccc(Cl)s2)nc2cccc(C)n12`, the “activation” value was inactive: -1.95%. In the case of `CN1CC[C@H](c2c(O)cc(O)c3c(=O)cc(-c4ccccc4Cl)oc23)[C@H](O)C1`, the “activation” value is reported as inactive: -8.21%. In the case of `CN(C)c1ccc(-n2c(CCC(=O)O)ccc2-c2ccccc2)cc1`, the “activation” value is reported as inactive: -1.12%. `COc1ccc(C2=NC(c3ccncc3)=Nc3ccc(Br)cc3N2)cc1` was tested, and the “activation” value was inactive: -7.97%. `COc1ccc(CC(=O)NCc2ccc3c(c2)CCN3C(=O)c2ccccc2)cc1OC` was tested, and the “activation” value was inactive: -12.8%. `Cc1ccc(C2=CC(c3ccccc3F)n3c(nc4ccccc43)N2)cc1C` (stereo unspecified) was tested, and the “activation” value was inactive: 16.9%. For `CCc1cccc(NC(=O)C2CCCN(S(=O)(=O)c3cccs3)C2)c1` (stereo unspecified), the “activation” value was inactive: -4.26%. For `CC(C)(C)c1ccc(OCCn2cc(C(=O)c3ccco3)c3ccccc32)cc1`, the “activation” value was inactive: -16.1%. With `COc1ccccc1N1CCN(C(CNC(=O)C(=O)NCc2ccc(C)cc2)c2cccnc2)CC1` (stereo unspecified) the “activation” value was inactive: -6.72%. In the case of `CCOC(=O)C1=C(CN2CCCCC2)NC(=O)NC1c1cc(C)ccc1C` (stereo unspecified), the “activation” value is reported as inactive: -11.4%. In the case of `CCn1cc(C(=O)N2CCN(c3ccc(F)cc3)CC2)c(=O)c2cc(S(=O)(=O)N(C)C3CCCCC3)ccc21`, the “activation” value is reported as inactive: -9.57%. In the case of `CNC(=O)CN1C(=O)c2cccnc2Sc2ccccc21`, the “activation” value is reported as inactive: -9.26%. With `CC(C)CC1N=C2c3ccccc3N=C(SCC(=O)NCCc3ccc(Cl)cc3)N2C1=O` (stereo unspecified) the “activation” value was inactive: -9.06%. In the case of `CCNC(=O)c1cnc2c(-c3ccccc3)c(C)nn2c1C`, the “activation” value is reported as inactive: -10.5%. For `COc1ccc(-c2nc3cc(C)ccn3c2NC(=O)c2ccc(C)c(C)c2)cc1`, the “activation” value was inactive: -6.13%. With `CC(C)CCn1c(=O)c2sccc2n2c(CCCC(=O)NC(C)C)nnc12` the “activation” value was inactive: 5.51%. `Cc1cccc(-c2nc3c(c(SCc4ccccc4Cl)n2)Cc2c(CO)cnc(C)c2O3)c1` was tested, and the “activation” value was inactive: -10.4%. For `COc1cc(Cl)c(C)cc1NC(=O)c1cc2c(Cl)nc3ccc(C)cc3c2s1`, the “activation” value was inactive: -16%. With `CCOc1ccccc1NC(=O)c1c(NC(=O)C(C)Oc2ccc(Cl)cc2)sc2c1CCCCC2` (stereo unspecified) the “activation” value was inactive: -10.2%. `Cc1cccc(OCC(=O)Nc2ccccc2OCc2cc(=O)n3ccccc3n2)c1` was tested, and the “activation” value was inactive: -17.2%. In the case of `COc1cccc(CNC(=O)CN(C)S(=O)(=O)c2ccc3[nH]c4c(c3c2)CCCC4)c1`, the “activation” value is reported as inactive: -14.3%. `COc1ccc(-n2c(=O)c3c4c(sc3n(Cc3ccccc3Cl)c2=O)CCC4)c(OC)c1` was tested, and the “activation” value was inactive: -9.3%. For `COc1ccccc1CCNC(=O)c1ccc2c(c1)c(C)c(C)n2Cc1ccc(Cl)cc1`, the “activation” value was inactive: -7.91%. For `O=C(O)Cn1c(=O)n(Cc2ccc(Br)cc2F)c(=O)c2ccc(Cl)cc21`, the “activation” value was inactive: -11.3%. With `O=C(NCc1ccccc1Cl)C1CCCN(C(=O)c2cnn(-c3ccccc3)c2-n2cccc2)C1` (stereo unspecified) the “activation” value was inactive: -6.18%. In the case of `CCOc1ccccc1CNC(=O)C1CCCN(c2ncnc3onc(-c4ccc(F)cc4)c23)C1` (stereo unspecified), the “activation” value is reported as inactive: -12.3%. In the case of `CCCCOc1ccc(CN2C(=O)C(=O)c3cc(Br)cc(C)c32)cc1OC`, the “activation” value is reported as inactive: -11.9%. For `Cc1cccc(C)c1-n1ncc(C(=O)Nc2ccc3c(c2)OCO3)c1C1CCN(C(=O)OC(C)(C)C)CC1`, the “activation” value was inactive: -20%. `COc1cccc(-c2cc(C(F)(F)F)nc(NCCc3ccccc3)n2)c1` was tested, and the “activation” value was inactive: -11.1%. For `Cc1ccc(CN2CCc3nc(N4CCN(c5ccccc5F)CC4)ncc3C2)cc1C`, the “activation” value was inactive: -14.7%. In the case of `COc1ccccc1C(=O)Nc1c(C(=O)N(C)Cc2ccccc2)sc2nc(C)c(Cl)c(C)c12`, the “activation” value is reported as inactive: -10.1%. `O=C(CSc1nnc(-c2ccc(O)cc2)o1)c1ccc(Br)cc1` was tested, and the “activation” value was inactive: -6.08%. With `Cc1ccc2c(c1)-c1nc(-c3ccc4c(c3)NC(=O)CO4)cc(-c3ccc(F)cc3)c1CO2` the “activation” value was inactive: -10.4%. In the case of `CCCCOc1ccc(CNC(=O)C2COc3ccc(OC)cc3C2)cc1` (stereo unspecified), the “activation” value is reported as inactive: -23.7%. For `Cn1c(=O)n(C/C=C/c2ccccc2)c(=O)c2c1nc1n2CCN1c1ccccc1`, the “activation” value was inactive: -12.5%. With `COc1ccc(S(=O)(=O)N(CC(=O)Nc2cccc(C(F)(F)F)c2)c2ccc(C)cc2)cc1` the “activation” value was inactive: 0.0299%. With `COc1ccc(CN(Cc2ccco2)c2cnc(S(C)(=O)=O)nc2C(=O)Nc2ccc(F)cc2)cc1` the “activation” value was inactive: -8.63%.
